# According to PubChem BioAssay AID1240 (Sanford-Burnham Center for Chemical Genomics, 2008):
# Out of some 50,000 compounds screened, about 800 (1.6%) showed an effect of 50% or more. The list shows a part of the results.
# Biological target: Bcl-2-like protein 10 (Homo sapiens) (UniProt Q9HD36)
# Test: TR3 peptide-Bcl-B binding displacers, biochemical primary FP assay, phenotype converters (AID 1240);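 also: 0% = Bcl-B with tracer peptide and DMSO and 100% = tracer peptide lacking Bcl-B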
# Conditions: GST-Bcl-B / FITC-TR3 peptide fluorescence polarization; stronger effect = higher value; compound at 3.75 mg/L
# Sequence of UniProt Q9HD36 (Q9HD36 whole entry, looked up): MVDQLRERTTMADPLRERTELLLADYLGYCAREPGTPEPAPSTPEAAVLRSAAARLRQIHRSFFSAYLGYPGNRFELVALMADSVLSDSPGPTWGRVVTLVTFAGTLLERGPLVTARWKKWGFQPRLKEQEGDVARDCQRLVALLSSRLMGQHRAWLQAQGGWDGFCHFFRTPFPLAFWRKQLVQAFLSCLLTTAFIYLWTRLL
row,SMILES,displacement
1,CS(=O)(=O)N1CCN(C(=O)c2ccc(F)cc2)CC1,9.2%
2,Cc1ccc(/C=C2/NC(=S)NC2=O)c(C)c1,1%
3,COc1ccc(-c2nc3cc(NC(=S)NC(=O)c4ccc(Cl)cc4)ccc3o2)cc1OC,-8.5%
4,O=C(CCc1ccccc1)N1N=C(c2cccnc2)CC1(O)C(F)(F)F (stereo unspecified),4.1%
5,COCCNC(=O)c1nn2c(c1Cl)NC(c1ccc(Br)cc1)CC2C(F)(F)F (stereo unspecified),5.9%
6,COc1cccc(C(=O)NCc2ccc3c(c2)OCO3)c1,-5.4%
7,CN1CCN(CCCOc2cc(Cl)ccc2Cl)CC1,-7.1%
8,CCOC(=O)C1=C(C)N=c2s/c(=C\c3ccc(N4CCOCC4)o3)c(=O)n2C1c1ccc(SC)cc1 (stereo unspecified),-55.4%
9,O=C(Nc1ccccc1)Nc1nnc(-c2ccc([N+](=O)[O-])cc2)s1,9.1%
10,CN1CCN(NC(=O)c2sc3ccccc3c2Cl)CC1,3.6%
11,O=C(CCc1ccccc1)Nc1nnc(-c2ccncc2)s1,5.8%
12,[O-][n+]1cc(O)c(Br)c2ccccc21,3.2%
13,COc1cc2ccccc2cc1C(=O)Nc1cc(-c2nc3cc(C)ccc3o2)ccc1C,19.3%
14,CS(=O)(=O)N(CC(=O)Nc1ccc(Oc2ccccc2)cc1)c1ccccc1,-6.7%
15,Cc1ccc(Cn2c(NC(=O)c3cccs3)nc3ccccc32)cc1,0.8%
16,O=C(Nc1ccccc1C(=O)O)c1ccc2c(c1)C(=O)N(c1ccc(Cl)cc1)C2=O,17.3%

row,SMILES,displacement
1,COc1ccc2ccccc2c1C(=O)/C=C/c1cccnc1,-3.8%
2,CCOc1ccc(Cc2n[nH]c(=S)n2N)cc1,0.1%
3,CCOc1ccccc1NC(=O)c1ccc(C)c([N+](=O)[O-])c1,11.6%
4,O=C(N/N=C/c1ccccc1)c1cc(=O)[nH]c2ccccc12,-12.1%
5,O=C(O)c1cc(-c2ccc(C=C3C(=O)c4ccccc4C3=O)o2)ccc1O,-23.4%
6,Cc1ccc(NC(=O)C(=O)NCCN2CCOCC2)c(C)c1,13.6%
7,O=C(CC(=O)c1ccccc1)Nc1ccc(C(=O)O)cc1,-5.3%
8,CCOc1ccccc1CN(CCc1ccc2c(c1)OCO2)Cc1ccc(OC)c(OC)c1,-15.5%
9,CN1C(=O)C(=Cc2ccccc2OC(=O)c2ccccc2)C(=O)N(C)C1=O,5.7%
10,O=C(Nc1ccc(F)cc1)c1cccc(I)c1,8.5%
11,O=C(CCCN1C(=O)c2cccc3cccc(c23)C1=O)Nc1ccc(OC(F)F)cc1,-4%
12,CCCOc1ccc(N2C(=O)CC(N3CCN(c4cccc(C(F)(F)F)c4)CC3)C2=O)cc1 (stereo unspecified),3.2%
13,Cc1ccc2c(c1)c1c(n2CCC(N)=O)C(=O)CCC1,-7.2%
14,Cc1ccccc1CNC(=O)C(C)Sc1ccc(Cl)cc1 (stereo unspecified),-7.7%
15,COc1cccc(CN2CCN(C3CCCCC3)CC2)c1,4.2%
